# Whole data set: some 33,000 sequences, median “E-score (-0.5 to 0.5)” near -0.053, cut for the highest 2% near 0.37. The list shows a part of the results.
# Biological target: Hap1 (UniProt P0CE41)
# Assay: PBM E-score (8-mer binding enrichment) (E-score (-0.5 to 0.5)); higher = stronger / more preferred TF binding; most listed sequences are background and not binding sites
# Details: protein concentration: 200 nM; construct: GST-DNA-binding domain
# In short: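 GST-tagged yeast TFs (full-length or DNA-binding domain) were made by PURExpress in vitro transcription/translation and applied at about 100-200 nM to universal all-10-mer Agilent arrays. The arrays were made double-stranded by primer extension, on fresh or once-stripped slides. Bound protein was detected with fluorescent anti-GST, and scans were normalised with masliner. Each ungapped eight-base word, pooled with its reverse complement, received an E-score (modified Wilcoxon-Mann-Whitney statistic) from the Universal PBM Analysis Suite.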
# Sequence of UniProt P0CE41 (P0CE41 whole entry): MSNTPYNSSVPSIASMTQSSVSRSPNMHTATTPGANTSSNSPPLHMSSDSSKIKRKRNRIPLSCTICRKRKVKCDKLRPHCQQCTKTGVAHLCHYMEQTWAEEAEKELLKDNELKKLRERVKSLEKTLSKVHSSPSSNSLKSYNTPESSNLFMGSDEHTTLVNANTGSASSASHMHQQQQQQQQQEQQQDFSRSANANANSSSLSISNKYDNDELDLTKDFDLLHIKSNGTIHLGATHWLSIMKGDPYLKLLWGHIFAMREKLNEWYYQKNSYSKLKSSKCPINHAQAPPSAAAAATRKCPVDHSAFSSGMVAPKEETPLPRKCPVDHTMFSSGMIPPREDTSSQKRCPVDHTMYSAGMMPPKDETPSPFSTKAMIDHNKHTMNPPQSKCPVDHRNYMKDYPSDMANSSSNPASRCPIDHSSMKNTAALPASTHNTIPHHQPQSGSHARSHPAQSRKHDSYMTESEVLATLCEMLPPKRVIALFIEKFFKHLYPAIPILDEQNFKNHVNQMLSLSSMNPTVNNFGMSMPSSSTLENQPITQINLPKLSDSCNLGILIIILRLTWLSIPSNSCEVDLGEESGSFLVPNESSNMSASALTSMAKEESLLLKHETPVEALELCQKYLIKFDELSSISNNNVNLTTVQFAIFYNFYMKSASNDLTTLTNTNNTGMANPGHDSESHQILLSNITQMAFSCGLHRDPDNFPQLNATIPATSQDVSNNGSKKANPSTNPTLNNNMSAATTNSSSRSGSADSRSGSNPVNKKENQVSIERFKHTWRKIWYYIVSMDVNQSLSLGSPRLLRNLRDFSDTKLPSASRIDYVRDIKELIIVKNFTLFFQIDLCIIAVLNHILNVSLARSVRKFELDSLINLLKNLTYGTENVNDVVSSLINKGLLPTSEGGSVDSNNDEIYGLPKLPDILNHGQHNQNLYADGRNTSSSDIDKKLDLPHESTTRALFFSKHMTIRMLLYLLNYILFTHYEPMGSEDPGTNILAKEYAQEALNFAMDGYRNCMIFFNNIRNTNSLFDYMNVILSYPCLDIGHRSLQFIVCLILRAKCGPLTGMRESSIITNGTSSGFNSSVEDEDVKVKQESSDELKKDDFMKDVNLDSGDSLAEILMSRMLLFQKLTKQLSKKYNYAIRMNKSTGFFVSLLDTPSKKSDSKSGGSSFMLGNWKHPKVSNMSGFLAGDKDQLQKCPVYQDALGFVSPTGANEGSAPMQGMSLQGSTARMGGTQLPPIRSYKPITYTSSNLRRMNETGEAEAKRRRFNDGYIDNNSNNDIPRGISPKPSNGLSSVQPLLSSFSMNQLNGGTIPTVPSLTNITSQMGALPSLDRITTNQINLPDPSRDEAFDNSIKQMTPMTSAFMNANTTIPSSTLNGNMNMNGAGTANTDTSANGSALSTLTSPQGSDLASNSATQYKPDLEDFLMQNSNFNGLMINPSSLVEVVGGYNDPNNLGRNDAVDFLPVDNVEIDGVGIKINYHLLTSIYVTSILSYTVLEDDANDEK
row,Sequence,PBM E-score
1,GCGTCCCC,-0.0827
2,AGGGTGGC,-0.0363
3,CGCTCGAG,-0.0165
4,GACTGAGA,-0.168
5,CTACTCCA,-0.0772
6,ACTCGCCT,-0.14
7,ACCGACCT,0.0397
8,CTCCACGC,-0.176
9,CCCTAGTA,-0.13
10,GATAACAA,0.085
11,GAAGACTA,-0.0051
12,GATGGCCC,-0.0457
13,GCTACTTA,-0.357
14,ACTAACGG,0.209
15,ATGGCGTA,-0.284
16,TATTCTGA,-0.144
17,CTATGGAG,-0.202
18,AAGTTTAC,-0.0737
19,GCTTGAGA,-0.212
20,AGTACGGC,0.0514
21,ATAGTTTA,-0.152
22,CTAGACGA,-0.377

row,Sequence,PBM E-score
1,ACACCGGG,0.321
2,AGACTGGG,-0.0747
3,CCAGCTCC,0.0613
4,GAATTGCA,-0.0685
5,ATACCTAC,-0.0437
6,ACTCGAAC,-0.181
7,GATGACCC,-0.0335
8,AGACTGCG,-0.236
9,CTTCACTA,0.00472
10,ACGCTAGA,-0.148
11,ACCGAGGA,0.309
12,TAGTGCCA,-0.092
13,TAGTAAAA,-0.0645
14,ATCAAGTA,-0.292
15,ACAATCTG,-0.111
16,CCATACGA,-0.313
17,AGTATGTA,-0.162
18,ACACCGGC,0.341
19,CGACTGTA,-0.166
20,AAGCAGTC,-0.145
21,TATCCTAA,-0.0421
22,GTCAATGA,-0.247

row,Sequence,PBM E-score
1,ACTGAGCT,-0.133
2,CTGAGATA,0.0178
3,AAAGACTT,-0.288
4,CAAGGCGC,0.0297
5,AAAATGCG,0.174
6,GGGTGCAA,0.172
7,TAAAGATA,0.0503
8,GGGAAAGA,-0.0239
9,GTTTTCAA,-0.0317
10,GGAGCATA,0.211
11,CCGCCACG,0.0808
12,CACCGTTC,-0.0228
13,ACTATGGG,-0.108
14,ACTTGGTC,0.102
15,AGTCGTCC,0.0326
16,ACTGCCAC,-0.217
17,AAGCATAC,-0.171
18,GGCGCTGA,0.018
19,ATCATGGC,-0.00164
20,ACATGTCG,-0.0145
21,AGGAACTA,-0.0416
22,ATGCCAGG,-0.127

row,Sequence,PBM E-score
1,ATAGGAAG,-0.076
2,CGTGATCA,-0.114
3,AATCGTTA,-0.0968
4,TCCACGGA,0.349
5,ATATGCCC,0.0832
6,ATATCAAG,-0.107
7,ATAAAGCA,-0.191
8,CATACAGG,-0.13
9,AGATGTAA,-0.0625
10,CCCCTGAG,-0.248
11,CTATCATC,-0.0812
12,ACTGAGGG,-0.321
13,CGGTCCAA,0.232
14,CATAGATA,-0.0541
15,TTCGCGAA,0.138
16,CGGAAAGC,0.189
17,AAACTTAG,-0.171
18,ATCTGCCC,0.0792
19,TCGATACA,-0.0572
20,ATTAGGAG,-0.101

# From the supplement of paper PMC3334620
